Experimental data: patent US20220389066A1 (Affibody, published 2022)

Key:
[1] = target: T1, HMGB1(disulfide), disulfide linked form of full-length HMGB1 (HMGB1C23-C45C106h) (rat, UniProt P63159 1-215, disulfide C23-C45; C106 reduced); test: SPR (Biacore 2000); Z-ABD captured on HSA, analyte injected; heterogeneous ligand parallel reactions model, KD2
T1 construct: unlabelled in Biacore and Attana; also called b-HMGB1(disulfide)
T1 sequence: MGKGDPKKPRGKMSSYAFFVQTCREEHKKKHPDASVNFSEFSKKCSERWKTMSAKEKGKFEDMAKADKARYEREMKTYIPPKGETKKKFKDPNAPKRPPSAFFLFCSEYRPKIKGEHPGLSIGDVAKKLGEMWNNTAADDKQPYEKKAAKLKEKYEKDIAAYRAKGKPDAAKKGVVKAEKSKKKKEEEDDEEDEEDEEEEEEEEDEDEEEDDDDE
Protocol: (§1) Biacore kinetic and specificity analysis: The interactions of the A-box binding Z-ABD polypeptides ZA3812 (SEQ ID NO:35) and ZA3914 (SEQ ID NO:36) with four different HMGB1 variants were analyzed in a Biacore instrument by injecting various concentrations of HMGB1 variants over a surface containing ZA3812 and ZA3914, respectively, captured on immobilized HSA. […] In addition, the interaction of the B-box binding Z-ABD polypeptide ZA3975 (SEQ ID NO:37) was analyzed for binding to HMGB1(red) in the same manner.

[2] = target: T2, boxA(disulfide), disulfide linked form of A-box domain of HMGB1 (human, UniProt P09429 1-89, disulfide C23-C45); test: SPR (Biacore 2000); Z-ABD captured on HSA, analyte injected; 1:1 Langmuir model
T2 construct: also called b-boxA(disulfide)
T2 sequence: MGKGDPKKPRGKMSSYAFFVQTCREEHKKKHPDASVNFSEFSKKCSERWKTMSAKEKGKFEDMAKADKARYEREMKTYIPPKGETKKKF
Protocol: as §1

[3] = target: T1, HMGB1(disulfide), disulfide linked form …; test: SPR (Biacore 2000); Z-ABD captured on HSA, analyte injected; heterogeneous ligand parallel reactions model, KD1
Protocol: Biacore kinetic and specificity analysis: Kinetic constants (kₐ and kd) and affinities (KD) for HMGB1(red), HMGB1(disulfide), boxA(disulfide) and GST-boxA(red) were determined for the A-box binding Z-ABD polypeptides ZA3812 (SEQ ID NO:35) and ZA3914 (SEQ ID NO:36) (see Example 2), as well as for the HMGB1(red) interaction with the B-box binding polypeptide ZA3975, using a Biacore 2000 instrument (GE Healthcare).
The experiment was performed as a capture assay, in which human serum albumin (HSA, Novozymes, cat. no. 230-005) was immobilized on the carboxylated dextran layer of one CM5 chip surface (GE Healthcare, cat. no. BR100012) to immobilization levels of approximately 3000 RU. The immobilization was performed using amine coupling chemistry according to the manufacturer's protocol and using HBS-EP (GE Healthcare, cat. no. BR100188) as running buffer. In a first set of experiments, Z-ABD polypeptides were analyzed under non-reducing conditions. One flow cell surface was activated and deactivated for use as blank during ligand and analyte injections. In the kinetic experiment, HBS-EP was used as running buffer and the flow rate was 30 μl/min. The ligand, i.e. the Z-ABD polypeptide, was diluted in HBS-EP buffer to a concentration of 30 nM and injected during 2 min. […]

[4] = target: T3, HMGB1(red), fully reduced form of full-length HMGB1 (HMGB1C23hC45hC106h) (rat, UniProt P63159 1-215, all cysteines reduced (C23h, C45h, C106h)); test: QCM (Attana A200); polypeptide captured on HSA, HMGB1(red) injected, 2 mM DTT; 1:1 or 1:2 model, relevant kd (most represented)
T3 construct: Produced by HMGBiotech; also called HMGB1(reduced); b-HMGB1(red)
T3 sequence: T1 sequence
Protocol: Binding analysis: The Attana A200® biosensor was used to characterize interactions between the dimeric polypeptides (SEQ ID NO:38-48) and HMGB1(red) under reducing conditions and/or HMGB1(disulfide) under non-reducing conditions. The monomeric ZA3812 (SEQ ID NO:35) was included for comparison. The experiment was performed as a capture assay, in which HSA was immobilized on Attana's sensor chip Low-NonSpecific-Binding (LNB). Immobilization was performed using amine coupling. The instrument has two sensor surfaces and HSA was immobilized on both surfaces. Around 110 Hz of HSA was stably immobilized on the surfaces.
In the kinetic experiment, HBS-EP+/−2 mM DTT was used as running buffer and the flow rate was 25 μl/min at 22° C. In each cycle, one polypeptide was tested against one concentration of HMGB1. […] The analyte HMGB1(reduced) was diluted in HBS-EP+2 mM DTT within a concentration range of 1.33 to 21.4 μg/ml, and the analyte HMGB1(disulfide) was diluted in HBS-EP buffer within a concentration range of 0.62 to 10 μg/ml. Both analytes were subsequently injected for 84 s over both channel A and B, where channel B was used as a blank surface for curve subtraction. Buffer injections were also made for surface subtractions. After dissociation, the surfaces were regenerated with a 30 s injection of 100 mM HCl followed by a 30 s injection of 20 mM NaOH. Data was collected by Attester Software and subsequently processed in the Evaluation Software. To calculate the kinetic parameters (kₐ and kd) and affinity constant (KD), the experimental data were fitted using a 1:1 or a 1:2 binding model.
Binding analysis of dimeric polypeptides targeting HMGB1: The interactions of a set of dimeric polypeptides, as well as one monomeric polypeptide, with HMGB1(reduced) and/or HMGB1(disulfide) were analyzed using an Attana A200® biosensor instrument by injecting various concentrations of HMGB1 over a surface containing captured polypeptides in fusion with ABD bound by immobilized HSA.

[5] = target: T1, HMGB1(disulfide), disulfide linked form …; test: SPR (Biacore 2000); Z-ABD captured on HSA, analyte injected; heterogeneous ligand parallel reactions model, kd1
Protocol: as §1

B1: ZA3812 ([ZH 27]-ASGS-PP013) (designed binder)
chain: AEAKYAKEDWDAFWEIIWLPNLTDAQQRAFIYKLEDDPSQSSELLSEAKKLNDSQAPKASGSLAEAKEAANAELDSYGVSDFYKRLIDKAKTVEGVEALKDAILAALP
[1]
  Kd: 2.7 nM
[2]
  Kd: 1.4 nM
  koff: 0.00021 s⁻¹
  kon: 150000 M⁻¹ s⁻¹
[3]
  Kd: 110 nM
[4]
  koff: 0.013 s⁻¹
[5]
  koff: 0.018 s⁻¹
